Laboratory results from PubChem BioAssay AID1508642 (National Center for Advancing Translational Sciences (NCATS), 2021).
Among all 43,000 compounds or so, about 200 (0.47%) were called active. Not shown: some 12% with an inconclusive outcome. Calls come from the whole dose curve; as a rule, active = well fitted cell-killing curve with a large enough effect; inconclusive = small, poorly fitted or top-dose-only effect, or effect the other way; inactive = flat fitted curve, though single readings scatter. Some of the results follow.

Assay: Cell viability qHTS assay in S16 Pmp22-F2sN cells; note: nearly all actives have a fitted effect of over 65% in size
Conditions: S16 Pmp22-F2sN Schwann cells (luciferase reporters placed in the Pmp22 gene) viability, CellTiter-Glo, 24 h; series mostly up to 57.5 µM; activity change, negative = cytotoxicity: at the top concentration
Procedure, shortened: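 Seed 500-1,000 S16 Pmp22-F2sN cells per well in phenol-red-free DMEM with 10% heat-inactivated FBS; pin-add 23 nL compound; incubate 24 h at 37C; add CellTiter-Glo, wait 15 min protected from light; read luminescence.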
% is set by controls: 0 for no effect and ±100 for the full control effect.

Compound	activity change, negative = cytotoxicity
CCC(C)NC(=O)c1c2c(nc3ccccc13)C(=O)N(C1CCCCC1)C2 (stereo unspecified)	inactive: 16.9%
CCOC(=O)c1cc(S(=O)(=O)Nc2ccccc2)[nH]n1	inactive: 3.57%
O=C(CSc1n[nH]c(-c2ccc(F)cc2)n1)N1CCN(c2ccc(F)cc2)CC1	inactive: -0.308%
CN1CCN(C(=O)c2ccc3c(c2)N(Cc2ccc(F)cc2)C(=O)c2ccccc2S3(=O)=O)CC1	inactive: -3.81%
COc1ccc(NC(=O)CSc2nnc(-c3ccncc3)n2-c2ccccc2)cc1	inactive: -1.73%
CCn1c(SCC(=O)Nc2cc(C)ccc2F)nnc1-c1ccccc1O	inactive: 6.11%
COc1ccc(N2CC(NC(=O)C3CCCCC3)CC2=O)cc1 (stereo unspecified)	inactive: 19.5%
CCN(c1ccc(OC)cc1)S(=O)(=O)c1ccc2[nH]c3c(c2c1)CCCCC3	inactive: -14%
NC(=O)c1cc(S(=O)(=O)NCc2cccc(Br)c2)cs1	inactive: 9.71%
COC(=O)c1ccc(NC(=O)Cn2c(=O)oc3ccccc32)cc1	inactive: 7.52%
Cc1ccc(CNC(=O)c2ccc3c(c2)CCN3S(=O)(=O)c2ccc(Br)cc2)cc1	inactive: 1.69%
COc1ccc(C2CC(=O)c3cc(-c4nc(-c5cccc([N+](=O)[O-])c5)cs4)c(=O)n(-c4ccccc4N)c3C2)cc1 (stereo unspecified)	inactive: 6.22%
CC(=O)c1ccc(NC(=O)C2CCN(S(=O)(=O)c3ccc4[nH]c5c(c4c3)CCCCC5)CC2)cc1	inactive: 8.02%
Cc1ccccc1CNC(=O)Cn1c(=O)c2cccn2c2cccnc21	inactive: 18.7%
COc1ccccc1CNC(=O)c1ccc(N2CCCC2)c(NC(=O)NCc2ccc(C)cc2)c1	inactive: 5.49%
CCCOc1ccc(C2c3c(oc4ccccc4c3=O)C(=O)N2c2nnc(C(C)C)s2)cc1 (stereo unspecified)	inactive: 4.91%
CCOC(=O)CNC(=O)N1CCN(S(=O)(=O)c2ccc3c(ccn3C)c2)CC1	inactive: 2.51%
COc1ccc(CC(=O)N2CC(=O)Nc3ccc(F)cc3C2c2ccccc2)cc1 (stereo unspecified)	inactive: 6.71%
Cc1ccc(-c2cn3nc(N4CCCC(C(=O)NCc5ccccc5F)C4)sc3n2)cc1 (stereo unspecified)	inactive: 0.324%
Cc1ccc(Cn2nc3n(c2=O)-c2cc(Cl)ccc2OC3)cc1	inactive: 3.06%
Cc1ccc(-c2csc(-c3c(N)c(C(=O)c4ccc5c(c4)OCO5)n4ccccc34)n2)cc1	inactive: -15.6%

Compound	activity change, negative = cytotoxicity
COc1ccc(C(=O)c2cn(CC(=O)Nc3cc(OC)cc(OC)c3)c3ccc(OC)cc3c2=O)cc1	inactive: -3.36%
Cc1cccc(N(C)C(=O)Cn2c(=O)oc3cc(S(=O)(=O)N4CCCCC4)ccc32)c1	inactive: -3.72%
COc1ccc(-c2nc3ccccc3o2)cc1NC(=O)Cc1ccc(Cl)cc1	inactive: 0.203%
Cn1ccnc1SCC(=O)Nc1cccc(Br)c1	inactive: 16%
CCOC(=O)c1c(S(=O)(=O)N2CCC(C(=O)NCc3cccc(OC)c3)CC2)c(C)n(C)c1C	inactive: 12.8%
Cc1c(Cl)cccc1NC(=O)C(=O)NCCc1csc(-c2ccc(C(F)(F)F)cc2)n1	inactive: 2.83%
Cc1ccccc1Cn1c(CN2CCC(C(=O)NCc3ccc(Cl)cc3)CC2)cc2ccccc21	inactive: 0.933%
CCCCN(C)C(=O)c1ccc2c(=O)n3nc(Nc4cc(C)ccc4C)sc3nc2c1	inactive: -16.7%
O=S1(=O)c2ccccc2N(Cc2ccccc2F)c2ccccc21	inactive: -0.82%
O=C(CNC(=O)c1ccc(F)cc1)OCc1cc(=O)n2ccsc2n1	inactive: 16.7%
COc1ccc(C(=O)Nc2ccc3oc(-c4cccc5c(Br)cccc45)nc3c2)cc1	inactive: -3.36%
Cc1cc(C)cc(NC(=O)COc2cccc3c(=O)n(C)ccc23)c1	inactive: 1.62%
COc1ccc(CCNC(=O)c2ccc(-n3c(C)cc4c3CCC(C)C4)cc2)cc1OC (stereo unspecified)	inactive: -2.65%
Cc1cc(C)c(OCC(=O)N(Cc2ccc(N(C)C)cc2)Cc2ccco2)c(C)c1	inactive: -11.4%
O=C(NCc1ccc2c(c1)OCO2)c1ccc2c(c1)N(Cc1c(F)cccc1Cl)C(=O)c1ccccc1S2	inactive: -2.98%
CCOC(=O)c1sc2ncn(CC(=O)Nc3ccc(OC)c(Cl)c3)c(=O)c2c1C	inactive: 0.881%
COc1ccc(-c2nc3sc(CCNC(=O)C(=O)Nc4ccc(OC)c(OC)c4)c(C)n3n2)cc1	inactive: 4.27%
CC(C)CCNC(=O)Cn1nc(N2CCN(c3ccccc3)CC2)ccc1=O	inactive: 1.73%
COc1ccc(Br)cc1Cn1nnc(C(=O)Nc2cccc(SC)c2)c1N	inactive: -16.9%
Cc1ccccc1Cn1c2ccccc2c2cnn(CC(=O)NC3CCCCCC3)c(=O)c21	inactive: -5.66%
O=C(CSc1nc2ccccc2n1Cc1cccc(F)c1)NCc1ccccc1	inactive: 7.38%

Compound	activity change, negative = cytotoxicity
CSc1cccc(NC(=O)c2cc3c(COC(C)=O)cnc(C)c3oc2=O)c1	inactive: 9.06%
O=C(CC(c1cccs1)N1Cc2ccccc2C1=O)Nc1ccc(F)cc1 (stereo unspecified)	inactive: -1%
COc1ccc(S(=O)(=O)NCc2nc(-c3ccccc3)no2)cc1	inactive: 3.6%
COc1ccc(OC)c(C2C(C(=O)Nc3ccc(C)cc3)=C(C)Nc3nnnn32)c1 (stereo unspecified)	inactive: 20.1%
Cc1ccc(NC(=O)c2ccc(CN3CC(=O)N4CCCCC4C3=O)cc2)c(Cl)c1 (stereo unspecified)	inactive: 0.056%
CN(CC(=O)Nc1cccc(F)c1)S(=O)(=O)c1ccc2c(c1)n(C)c(=O)c(=O)n2C	inactive: -21.8%
COc1ccc(Cn2ccc3nc(C)c(C(=O)NCc4ccc(SC)cc4)cc3c2=O)cc1	inactive: -0.515%
Cc1ccccc1NC(=O)Cn1nc(-c2ccccc2)nc(Cc2ccccc2)c1=O	inactive: 1.86%
Cc1ccc(CNS(=O)(=O)c2cnc(N)nc2)cc1	inactive: 0.912%
O=C(c1cc2c(Cl)nc3ccccc3c2s1)N1CCCCC1	inactive: -9.73%
Oc1ccc(-c2nc3ccc(Cl)cn3c2Nc2ccc(Cl)cc2)cc1	inactive: 12.2%
COc1ccc(CNC(=O)CSc2nnc(C)c3c(C)n(-c4ccccc4)nc23)c(OC)c1	inactive: -16.3%
CCc1ccc2ncc3c(-c4ccc(C)cc4)nn(CC(=O)NCc4ccccc4)c3c2c1	inactive: 1.09%
Cc1cc(C)cc(N(CC(=O)NCCc2ccc(Cl)cc2)S(=O)(=O)c2c(C)noc2C)c1	inactive: 7.83%
Cc1ccc2c(c1)c1c(c(=O)n(-c3ccccc3)c(=O)n1Cc1ccccc1C)n2C	inactive: 9.57%
CN1CCN(C(=O)c2cnn(-c3ccc(F)cc3F)c2C2CCN(C(=O)OC(C)(C)C)CC2)CC1	inactive: 7.83%
COc1ccc(NC(=O)Nc2nnc(N3CCCC3)s2)cc1	inactive: -1.59%
CCC(=O)N1c2ccccc2CC1C(=O)NCc1ccc(CC)cc1 (stereo unspecified)	inactive: 9.63%
Cc1ccc2c(=O)cc(C(=O)N(Cc3ccc(C(C)(C)C)cc3)C3CCS(=O)(=O)C3)oc2c1 (stereo unspecified)	inactive: -4.55%
